No constants are given. Whether binding was seen depends on the method and setting. Some results given as binding are weak or reduced against the parent protein; the word gives no strength.
Molecular target: T1, PAK4 catalytic domain D440N,S474E, the kinase part of the chimeric integrin β5^743–774-linker-PAK4cat^D440N,S474E (human) (UniProt O96013)
T1 sequence: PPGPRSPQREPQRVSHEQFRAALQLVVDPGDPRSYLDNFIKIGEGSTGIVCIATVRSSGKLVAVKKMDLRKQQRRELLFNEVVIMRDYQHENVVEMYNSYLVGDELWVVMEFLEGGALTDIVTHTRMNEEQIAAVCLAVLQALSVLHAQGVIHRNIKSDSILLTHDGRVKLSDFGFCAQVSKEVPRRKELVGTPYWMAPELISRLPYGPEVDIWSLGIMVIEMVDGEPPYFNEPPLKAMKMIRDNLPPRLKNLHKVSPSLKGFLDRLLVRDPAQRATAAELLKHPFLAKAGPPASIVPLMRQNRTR
Test: crystal structure; chimeric integrin β5 743–774-linker-PAK4cat proteins (one chain), with 1 mM AMP-PNP and 5 mM MgCl2; built in cis, a trans complex is possible; both purified

Chains of the proteins cited; added tags and fusions are not shown. Lines headed by an entry give the natural chain unless they say otherwise; changes in a name come on top. Residues count along the entry.
UniProt P18084, residues 743-774: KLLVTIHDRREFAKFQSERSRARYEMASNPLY

“integrin β5 tail residues 743–774, the integrin part of the chimeric integrin β5^743–774-linker-PAK4cat proteins (from UniProt P18084 743-774) (domain or fragment)” was tested, and the binding was “binds”.
